Data on 32 variants can be found in the GPR68 mutational scans of Howard et al. (2025).

Scores with a large standard error are left out. Two further conditions of the source, in which the scores hardly spread, are not listed. Read del as a deletion of the residues named and ins as an insertion between two positions. For some assays here: The concentration of ogerin is not given here.

To fix the notation:
B1: GPR68, Q15743 (parent)
chain: MGNITADNSSMSCTIDHTIHQTLAPVVYVTVLVVGFPANCLSLYFGYLQIKARNELGVYLCNLTVADLFYICSLPFWLQYVLQHDNWSHGDLSCQVCGILLYENIYISVGFLCCISVDRYLAVAHPFRFHQFRTLKAAVGVSVVIWAKELLTSIYFLMHEEVIEDENQHRVCFEHYPIQAWQRAINYYRFLVGFLFPICLLLASYQGILRAVRRSHGTQKSRKDQIQRLVLSTVVIFLACFLPYHVLLLVRSVWEASCDFAKGVFNAYHFSLLLTSFNCVADPVLYCFVSETTHRDLARLRGACLAFLTCSRTGRAREAYPLGAPEASGKSGAQGEEPELLTKLHPAFQTPNSPGSGGFPTGRLA

Data set [1] covers variants of B1. The data set is described as follows: cAMP reporter score (Enrich2 score, wild type = 0); higher = more signal; HEK293T, FACS bins.
The variants in data set [2] derive from B1. Nature of the data set: surface expression score (Enrich2 score, wild type = 0); higher = more signal; HEK293T, FACS bins.

For the variant T293_H294insG, the cAMP reporter score was -1.37 in data set [1] (pH 5.5); -0.612 in data set [1] (pH 6); -0.767 in data set [1] (pH 6, modulator: ogerin); -0.34 in data set [1] (pH 6.5, modulator: ogerin). For the same variant, the surface expression score in data set [2] was -0.232.

Take R299_L300insGSG: the cAMP reporter score was -0.995 in data set [1] (pH 5.5); -0.694 in data set [1] (pH 6); -1.17 in data set [1] (pH 6, modulator: ogerin); -1.28 in data set [1] (pH 6.5, modulator: ogerin). Further, in data set [2], the surface expression score is -0.264.

Consider L297_A298del, for which the cAMP reporter score was -1.66 in data set [1] (pH 5.5); -0.835 in data set [1] (pH 6); -1.32 in data set [1] (pH 6, modulator: ogerin); -1.12 in data set [1] (pH 6.5, modulator: ogerin). Besides, in data set [2], the surface expression score is -0.033.

Turning to A306D, the cAMP reporter score in data set [1] (pH 5.5) was determined as 0.849; in data set [1] (pH 6, modulator: ogerin), 1.39; in data set [1] (pH 6.5, modulator: ogerin) it was 2.57. Besides, the surface expression score in data set [2] turned out to be 1.15.

Consider A306E, for which the cAMP reporter score was determined as 1.14 in data set [1] (pH 5.5); 0.727 in data set [1] (pH 6); 0.735 in data set [1] (pH 6, modulator: ogerin); 0.851 in data set [1] (pH 6.5, modulator: ogerin). Also, in data set [2], the surface expression score came to 1.16.

On to A306W, for which the cAMP reporter score in data set [1] (pH 5.5) was -1.22; in data set [1] (pH 6), -0.29; in data set [1] (pH 6, modulator: ogerin) it was -0.379; in data set [1] (pH 6.5, modulator: ogerin), 0.253. Moreover, the surface expression score in data set [2] was -1.08.

In the case of A306P, the cAMP reporter score in data set [1] (pH 5.5) is 0.221; in data set [1] (pH 6), 0.38; in data set [1] (pH 6, modulator: ogerin), 0.402; in data set [1] (pH 6.5, modulator: ogerin) it was -0.211. In data set [2], the surface expression score was -0.009.

As to A306T, the cAMP reporter score was 0.816 in data set [1] (pH 5.5); -0.024 in data set [1] (pH 6, modulator: ogerin); -0.199 in data set [1] (pH 6.5, modulator: ogerin). For the same variant, in data set [2], the surface expression score came to 0.201.

Take A306V: the cAMP reporter score in data set [1] (pH 5.5) was 0.072; in data set [1] (pH 6), -1.76; in data set [1] (pH 6, modulator: ogerin), 0.459; in data set [1] (pH 6.5, modulator: ogerin) it was -0.676. In data set [2], the surface expression score was -1.13.

For A306G, the cAMP reporter score in data set [1] (pH 5.5) was determined as 0.914; in data set [1] (pH 6), 0.49; in data set [1] (pH 6, modulator: ogerin) it was 0.578; in data set [1] (pH 6.5, modulator: ogerin), 0.232. For the same variant, the surface expression score in data set [2] came to 0.774.

In the case of A306I, the cAMP reporter score in data set [1] (pH 5.5) is 0.215; in data set [1] (pH 6), -0.871; in data set [1] (pH 6, modulator: ogerin) it was -0.119; in data set [1] (pH 6.5, modulator: ogerin) it was -0.119.

As for A306R, the cAMP reporter score in data set [1] (pH 5.5) is -1.59; in data set [1] (pH 6), -1.26; in data set [1] (pH 6, modulator: ogerin), -0.894; in data set [1] (pH 6.5, modulator: ogerin), -0.626. The surface expression score in data set [2] was -0.573.

A306Q: the cAMP reporter score was 1.03 in data set [1] (pH 5.5); -0.828 in data set [1] (pH 6); 0.562 in data set [1] (pH 6, modulator: ogerin); 0.093 in data set [1] (pH 6.5, modulator: ogerin). Moreover, the surface expression score in data set [2] worked out at 0.571.

Consider A306Y, for which the cAMP reporter score in data set [1] (pH 5.5) was 1.25; in data set [1] (pH 6), 0.264; in data set [1] (pH 6, modulator: ogerin), 0.873; in data set [1] (pH 6.5, modulator: ogerin), -1.08.

For A306L, the cAMP reporter score in data set [1] (pH 5.5) was -0.313; in data set [1] (pH 6), -0.531; in data set [1] (pH 6, modulator: ogerin) it was -0.172; in data set [1] (pH 6.5, modulator: ogerin), -0.052. Besides, the surface expression score in data set [2] was -1.07.

As for A306F, the cAMP reporter score in data set [1] (pH 5.5) is 0.655; in data set [1] (pH 6) it was -1.16; in data set [1] (pH 6, modulator: ogerin), 0.249; in data set [1] (pH 6.5, modulator: ogerin), -0.362. Also, in data set [2], the surface expression score is -0.318.

Regarding A306N, the cAMP reporter score in data set [1] (pH 5.5) is 0.11; in data set [1] (pH 6), 0.406; in data set [1] (pH 6, modulator: ogerin), -0.076; in data set [1] (pH 6.5, modulator: ogerin) it was -0.003. Moreover, the surface expression score in data set [2] is 0.117.

On to A306S, for which the cAMP reporter score in data set [1] (pH 5.5) came to 1.02; in data set [1] (pH 6) it was 1.68; in data set [1] (pH 6, modulator: ogerin), 2.6; in data set [1] (pH 6.5, modulator: ogerin), 1.48. In addition, the surface expression score in data set [2] is -0.275.

As for A306C, the cAMP reporter score was -0.028 in data set [1] (pH 5.5); -0.144 in data set [1] (pH 6); -0.368 in data set [1] (pH 6, modulator: ogerin); -0.833 in data set [1] (pH 6.5, modulator: ogerin). Moreover, the surface expression score in data set [2] was -0.413.

Consider A306M, for which the cAMP reporter score amounted to 0.315 in data set [1] (pH 5.5) and 0.448 in data set [1] (pH 6, modulator: ogerin). The surface expression score in data set [2] is -0.456.

A306K: the cAMP reporter score in data set [1] (pH 5.5) came to 0.96; in data set [1] (pH 6) it was 0.611; in data set [1] (pH 6, modulator: ogerin), 0.754; in data set [1] (pH 6.5, modulator: ogerin) it was 1.35. For the same variant, the surface expression score in data set [2] was 0.951.

In the case of A306H, the cAMP reporter score came out at 1.02 in data set [1] (pH 5.5); 0.723 in data set [1] (pH 6, modulator: ogerin); 0.375 in data set [1] (pH 6.5, modulator: ogerin). Also, the surface expression score in data set [2] is 1.28.

T293del: the cAMP reporter score is -1.77 in data set [1] (pH 5.5); -0.729 in data set [1] (pH 6, modulator: ogerin); -1.12 in data set [1] (pH 6.5, modulator: ogerin). In addition, in data set [2], the surface expression score came out at 0.346.

Consider L305_A306insGS, for which the cAMP reporter score amounted to 0.468 in data set [1] (pH 5.5); 0.132 in data set [1] (pH 6); 0.47 in data set [1] (pH 6, modulator: ogerin); 0.197 in data set [1] (pH 6.5, modulator: ogerin). The surface expression score in data set [2] was found to be 0.431.

H294Y: the cAMP reporter score in data set [1] (pH 5.5) is 0.564; in data set [1] (pH 6), -1.11; in data set [1] (pH 6, modulator: ogerin), 0.075; in data set [1] (pH 6.5, modulator: ogerin), -0.936. For the same variant, the surface expression score in data set [2] worked out at 0.87.

As to H294P, the cAMP reporter score in data set [1] (pH 5.5) is -1.57; in data set [1] (pH 6), -0.894; in data set [1] (pH 6, modulator: ogerin), -1.35; in data set [1] (pH 6.5, modulator: ogerin), -0.916. Further, the surface expression score in data set [2] was 0.414.

With H294M, the cAMP reporter score in data set [1] (pH 5.5) is -0.276; in data set [1] (pH 6), -1.26; in data set [1] (pH 6, modulator: ogerin) it was 0.69; in data set [1] (pH 6.5, modulator: ogerin), -0.229. In addition, in data set [2], the surface expression score came to 0.854.

Take H294I: the cAMP reporter score in data set [1] (pH 5.5) was -0.852; in data set [1] (pH 6) it was 0.643; in data set [1] (pH 6, modulator: ogerin) it was -0.597; in data set [1] (pH 6.5, modulator: ogerin) it was -0.219. For the same variant, the surface expression score in data set [2] was determined as 0.115.

On to H294W, for which the cAMP reporter score is -0.149 in data set [1] (pH 5.5); 0.988 in data set [1] (pH 6); 0.944 in data set [1] (pH 6.5, modulator: ogerin). Further, the surface expression score in data set [2] is -1.38.

In the case of H294L, the cAMP reporter score was -0.595 in data set [1] (pH 5.5) and -0.156 in data set [1] (pH 6, modulator: ogerin). In addition, in data set [2], the surface expression score came out at 0.033.

For the variant H294G, the cAMP reporter score in data set [1] (pH 5.5) was 1.09; in data set [1] (pH 6), 0.039; in data set [1] (pH 6, modulator: ogerin), -0.169; in data set [1] (pH 6.5, modulator: ogerin), 0.451. Further, the surface expression score in data set [2] was 2.38.

With H294D, the cAMP reporter score in data set [1] (pH 5.5) was -1.29; in data set [1] (pH 6), -1.02; in data set [1] (pH 6, modulator: ogerin), -1.56; in data set [1] (pH 6.5, modulator: ogerin), -1.61. In addition, the surface expression score in data set [2] is -0.784.
